# Measurements from PubChem BioAssay AID686979 (National Center for Advancing Translational Sciences (NCATS), 2013).
# The whole screen tested about 420,000 compounds, of which about 50,000 (12%) were called active. Inconclusive results, whose numbers are uncertain, are shown with a selection of clear calls. Calls follow the shape of the dose curve; as a rule, active = well fitted inhibition curve with a large enough effect; inconclusive = small, poorly fitted or top-dose-only effect; inactive = flat fitted curve, though single readings scatter. No potency is given beside an inconclusive call; the fits are too rough.
# Experiment: qHTS for Inhibitors of human tyrosyl-DNA phosphodiesterase 1 (TDP1): qHTS in cells in presence of CPT; also: nearly all actives have a fitted effect of over 55% in size
# Settings: chicken DT40 Tdp1-/-;hTDP1 cells + 20 nM CPT, ATP luminescence, 48 h; activity change, negative = growth inhibition: at 46.2 µM (top of the series) unless noted
# Method in brief: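 Chicken DT40 Tdp1-/- cells complemented with human TDP1, 400 cells/well, exposed to compounds plus 20 nM camptothecin for at least 48 h at 37 C; viability read as ATP content by CellTiter-Glo luminescence.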
# % is scaled to controls: 0 for no effect and ±100 for the full control effect; potency is read from the fitted curve at half-maximal effect; tags tell the direction and shape of the fitted curve.
SMILES,Potency,"activity change, negative = growth inhibition"
CCCCN(CC)C(=O)c1ccccc1Oc1ccccc1,active: 20.6 µM,–
O=C1CN(C(=O)c2cc3ccccc3oc2=O)C(c2ccc(F)cc2)c2cc(Br)ccc2N1 (centres undefined),active: 13 µM,–
Cc1ccc(N2C(=O)[C@@H]3C(C(=O)CN4C(=O)c5ccccc5C4=O)=NN[C@@H]3C2=O)c(C)c1,inactive,–
CN(CC1COCCO1)C(=O)c1cnn(-c2nccc(-c3ccccc3C(F)(F)F)n2)c1C1CC1 (centres undefined),"inconclusive [inhibitor, single point]",–
CCNS(=O)(=O)c1ccc(S(=O)(=O)N(Cc2ccccn2)C2CCCCC2)cc1,inactive,–
COc1ccc(N/N=C/c2c(C(=O)O)ccc3ccccc23)cc1,active: 2.59 µM,–
Cc1ccc(OCCCOc2cccc3cccnc23)cc1C,"inconclusive [inhibitor, single point]",–
O=C(Nc1cccnc1)c1cc(Br)c(Br)s1,"inconclusive [inhibitor, partial curve]",–
CCCc1cc(=O)[nH]c(Nc2ccc(Cl)cc2)n1,"inconclusive [inhibitor, single point]",–
CN(CC(=O)NC1CCCC1)S(=O)(=O)c1cccc(Cl)c1,inactive,–
Cn1c(=O)c2cc(NC(=S)NC3CCCCC3)ccc2n1Cc1ccc(Cl)cc1,"inconclusive [inhibitor, single point]",–
Cc1nc(N2CCCC2)c2nnn(Cc3ccccc3Cl)c2n1,active: 13 µM,–
Cc1ccc(CNC(=O)Cn2c(=O)ccc3cc(S(=O)(=O)N4CCCC4)ccc32)cc1,inactive,–
CC(C)(C)c1cc(NC(=O)c2c(F)cccc2Cl)n(-c2ccccc2)n1,"inconclusive [inhibitor, partial curve, poor fit]",–
CC(NC(=O)c1c2c(nc3ccccc13)C(=O)N(C1CCCCC1)C2)c1ccccc1 (centres undefined),active: 16.4 µM,–
Brc1ccc(CN2CCN(c3ccccn3)CC2)s1,inactive,–
CN(Cc1ccccn1)C(=O)c1ccc2nc(Cc3cccc(Cl)c3)oc2c1,"inconclusive [inhibitor, single point]",–
CCCCNC(=O)COC(=O)c1ccc(NS(=O)(=O)c2ccc3c(c2)OCCO3)cc1,"inconclusive [inhibitor, single point]",–
Cc1ccc2c(c1)C(=O)C(=O)N2c1ccc(Cl)cc1,"inconclusive [inhibitor, full curve]",–
CCn1c(NCCO)nc2c(c1=O)C(C)(CC)Cc1ccccc1-2 (centres undefined),"inconclusive [inhibitor, partial curve]",–
Cc1nnc2n(-c3ccccc3)c(=O)c3c4c(sc3n12)CC(C)CC4 (centres undefined),"inconclusive [inhibitor, single point]",–
Cc1ccccc1N=C1Nc2ccccc2N[C@]12C[C@H]1CCC(=O)N3CC[C@@H](C2)[C@@H]13,inactive,–
Cc1ccc(NC(=O)CN2C(=O)CCn3nc(-c4cccn4C)cc32)c(Cl)c1,"inconclusive [inhibitor, partial curve, poor fit]",–

SMILES,Potency,"activity change, negative = growth inhibition"
CCc1nc(OCc2ccco2)c2sc3nc4c(cc3c2n1)COC(C)(C)C4,active: 25.9 µM,–
O=C(NC1CCCCC1)c1ccc(CS(=O)(=O)c2ccc(Cl)cc2)o1,inactive,–
CN(C)c1ccc(/C=C/c2c3ccccc3nc3ccccc23)cc1,"inconclusive [inhibitor, single point]",–
CCOC(=O)c1c(C)nn(Cc2ccccc2)c1N,inactive,–
Cc1ccc(N2C(=O)N3[C@H](c4ccc(Br)cc4)[C@@H]4C(=O)N(C(C)(C)C)C(=O)[C@@H]4[C@]3(C)C2=O)cc1,"inconclusive [inhibitor, single point]",–
CN(C)c1ccc(NC(=O)CN2C(=O)c3ccccc3Sc3ccc(C(=O)N4CCCC4)cc32)cc1,"inconclusive [inhibitor, single point]",–
CCOC(=O)C1CCN(C(=O)Cn2ncc3c4ccccc4n(Cc4ccccc4F)c3c2=O)CC1,active: 3.26 µM,–
CC1CN(S(=O)(=O)c2ccc(C(=O)N(CCCN(C)C)c3nc4cc5c(cc4s3)OCCO5)cc2)CC(C)O1 (centres undefined),inactive,–
CCc1nc2ccc(C(=O)N3CCN(c4ccccc4)CC3)cn2c1N(CCC(C)C)CCN(C)C,"inconclusive [inhibitor, single point]",–
CCc1c(-c2ccc(Br)cc2)ncn1Cc1cccc(-c2ccccc2)c1,active: 7.31 µM,–
Cc1cc(Cl)ccc1C(=O)C1CCCN(C(=O)CCN2CCCO2)C1 (centres undefined),"inconclusive [inhibitor, single point]",–
Cc1ccc(COC(=O)c2nn(C)c(=O)c3ccccc23)cc1,"inconclusive [inhibitor, partial curve]",–
CC1=NN(c2ccc(C)c(C)c2)C(=O)/C1=C/c1ccc2c(c1)n(C)c(=O)n2C,"inconclusive [inhibitor, single point]",–
C=CCn1c(=O)c2ccccc2n2c(SCC(=O)Nc3sc(C)c(CC)c3C(=O)OCC)nnc12,"inconclusive [inhibitor, partial curve]",–
CC(=O)Nc1cccc(NC(=O)c2sc3ncn(CC(=O)N4CCCCC4)c(=O)c3c2C)c1,–,inconclusive: -32.9% [inhibitor]
CCOc1cc(/C=N/NC(=O)c2nnn(-c3nonc3N)c2C)ccc1OCc1ccc(C)cc1,"inconclusive [inhibitor, partial curve]",–
CCNC(=O)C1CCN(S(=O)(=O)c2ccc(F)cc2)CC1,"inconclusive [inhibitor, single point]",–
CCC(C)Oc1ccccc1C1CC(=O)NC2=C1C(=O)CCC2 (centres undefined),active: 25.9 µM,–
CC1(c2ccccc2)NC(=O)N(CC(=O)NNC(=O)c2ccccc2)C1=O (centres undefined),inactive,–
Cn1ncc2c(c(SCc3ccc(Cl)cc3Cl)nn2C)c1=O,–,inconclusive: -30% [inhibitor]
O=C(COC(=O)c1cnccn1)N=c1sccn1Cc1ccccc1Cl,inactive,–
COc1ccc(-n2c(=O)c(CCc3ccccc3)nc3cnc(OC)nc32)cc1,"inconclusive [inhibitor, single point]",–
c1ccc(Nc2ncnc3ccc(-c4ccc5c(c4)OCO5)cc23)cc1,"inconclusive [inhibitor, single point]",–

SMILES,Potency,"activity change, negative = growth inhibition"
CC(=O)CSc1nc2ccc(Nc3nc(N4CCOCC4)nc(N4CCOCC4)n3)cc2s1,"inconclusive [inhibitor, partial curve]",–
O=C(Cn1c(-c2cccs2)cc2cc(F)ccc21)NCCCN1CCN(c2ccccc2F)CC1,active: 20.6 µM,–
O=C(CSc1cccc2cccnc12)Nc1ccccc1F,"inconclusive [inhibitor, single point]",–
Cc1cc(C)c(S(=O)(=O)/N=C2\C=C(NS(=O)(=O)c3ccccc3)C(=O)c3ccccc32)c(C)c1,"inconclusive [inhibitor, partial curve]",–
O=C1NC(=S)NC1=Cc1ccc(O)cc1,inactive,–
Cc1nn(CCCC(=O)NCc2cccc(Cl)c2)c(=O)c2c1sc1ccccc12,"inconclusive [inhibitor, single point]",–
COC(=O)[C@@H]1CCCN1C(=O)c1c(OC)cc(=O)n2c1CCN(Cc1ccc(C)o1)CC2,inactive,–
c1ccc(CNc2ncnc3c2cnn3-c2ccccc2)cc1,active: 5.8 µM,–
Cc1ccc(C2c3[nH]c4ccccc4c3C[C@H]3C(=O)N(c4ccccc4C(=O)NCCCN4CCOCC4)C(=O)N23)cc1 (some centres undefined),active: 11.6 µM,–
CNc1nc(OC)nc(N(C#N)CN2C(=O)c3ccccc3S2(=O)=O)n1,active: 14.6 µM,–
Cc1ccc(C(=O)N/C(=C\c2cccnc2)c2nc3ccccc3[nH]2)cc1,"inconclusive [inhibitor, full curve, poor fit]",–
O=[N+]([O-])c1ccccc1CSc1ccccn1,inactive,–
N#C/C(=C1/C(=O)Nc2ccc(Br)cc21)c1ccccn1,"inconclusive [inhibitor, single point]",–
S=c1[nH]nc(COc2ccccc2)n1/N=C/c1ccc(Cl)cc1,inactive,–
COc1ccc(C(=S)N2CCOCC2)cc1OC(=O)c1cc(OC)c(OC)c(OC)c1,inactive,–
CCN(C[C@H]1N[C@@](C)(C(=O)OC)[C@H]2C(=O)N(Cc3ccccc3)C(=O)[C@@H]12)C(=O)Nc1ccc(Cl)cc1,"inconclusive [inhibitor, single point]",–
CC1CCCCC1NC(=O)c1cc(=O)[nH]c2ccccc12 (centres undefined),inactive,–
CCc1ccc2[nH]c(=O)c(CN(CCCN3CCOCC3)C(=O)Nc3cccc(Cl)c3)cc2c1,"inconclusive [inhibitor, single point]",–
CC(NC(=O)c1cccc(S(=O)(=O)N2CCN(Cc3ccccc3)CC2)c1)c1ccc(Br)cc1 (centres undefined),"inconclusive [inhibitor, single point]",–
Cc1cccc(OCC(O)Cn2c(=N)n(Cc3ccccc3)c3ccccc32)c1 (centres undefined),"inconclusive [inhibitor, single point]",–
COc1ccc(N2CCN(CC(=O)Nc3c(C)cc(C)cc3C)CC2)cc1,"inconclusive [inhibitor, single point]",–
CCc1cc(=O)oc2cc(OC(=O)CN3C(=O)NC4(CCCC4)C3=O)ccc12,"inconclusive [inhibitor, single point]",–
COc1ccc(S(=O)(=O)N(n2c(C)nnc2-n2nc(C)cc2C)S(=O)(=O)c2ccc(OC)cc2)cc1,inactive,–
